# From PubChem BioAssay AID1347165 (National Center for Advancing Translational Sciences (NCATS), 2019)
# Hit rate of the full screen: of about 220,000 compounds, about 5,700 (2.6%) were called active. Inconclusive means that the source gave no clear call. Such entries were picked first, then a sample of the others. Calls come from the whole dose curve; as a rule, active = well fitted inhibition curve with a large enough effect; inconclusive = small, poorly fitted or top-dose-only effect; inactive = no such curve, though single readings can be large or run the other way. Potencies of inconclusive entries are doubtful fits and often do not repeat.
# Biological target: Lysine-specific demethylase 5B (Homo sapiens) (UniProt Q9UGL1)
# UniProt Q9UGL1, sequence (Q9UGL1 whole entry, looked up): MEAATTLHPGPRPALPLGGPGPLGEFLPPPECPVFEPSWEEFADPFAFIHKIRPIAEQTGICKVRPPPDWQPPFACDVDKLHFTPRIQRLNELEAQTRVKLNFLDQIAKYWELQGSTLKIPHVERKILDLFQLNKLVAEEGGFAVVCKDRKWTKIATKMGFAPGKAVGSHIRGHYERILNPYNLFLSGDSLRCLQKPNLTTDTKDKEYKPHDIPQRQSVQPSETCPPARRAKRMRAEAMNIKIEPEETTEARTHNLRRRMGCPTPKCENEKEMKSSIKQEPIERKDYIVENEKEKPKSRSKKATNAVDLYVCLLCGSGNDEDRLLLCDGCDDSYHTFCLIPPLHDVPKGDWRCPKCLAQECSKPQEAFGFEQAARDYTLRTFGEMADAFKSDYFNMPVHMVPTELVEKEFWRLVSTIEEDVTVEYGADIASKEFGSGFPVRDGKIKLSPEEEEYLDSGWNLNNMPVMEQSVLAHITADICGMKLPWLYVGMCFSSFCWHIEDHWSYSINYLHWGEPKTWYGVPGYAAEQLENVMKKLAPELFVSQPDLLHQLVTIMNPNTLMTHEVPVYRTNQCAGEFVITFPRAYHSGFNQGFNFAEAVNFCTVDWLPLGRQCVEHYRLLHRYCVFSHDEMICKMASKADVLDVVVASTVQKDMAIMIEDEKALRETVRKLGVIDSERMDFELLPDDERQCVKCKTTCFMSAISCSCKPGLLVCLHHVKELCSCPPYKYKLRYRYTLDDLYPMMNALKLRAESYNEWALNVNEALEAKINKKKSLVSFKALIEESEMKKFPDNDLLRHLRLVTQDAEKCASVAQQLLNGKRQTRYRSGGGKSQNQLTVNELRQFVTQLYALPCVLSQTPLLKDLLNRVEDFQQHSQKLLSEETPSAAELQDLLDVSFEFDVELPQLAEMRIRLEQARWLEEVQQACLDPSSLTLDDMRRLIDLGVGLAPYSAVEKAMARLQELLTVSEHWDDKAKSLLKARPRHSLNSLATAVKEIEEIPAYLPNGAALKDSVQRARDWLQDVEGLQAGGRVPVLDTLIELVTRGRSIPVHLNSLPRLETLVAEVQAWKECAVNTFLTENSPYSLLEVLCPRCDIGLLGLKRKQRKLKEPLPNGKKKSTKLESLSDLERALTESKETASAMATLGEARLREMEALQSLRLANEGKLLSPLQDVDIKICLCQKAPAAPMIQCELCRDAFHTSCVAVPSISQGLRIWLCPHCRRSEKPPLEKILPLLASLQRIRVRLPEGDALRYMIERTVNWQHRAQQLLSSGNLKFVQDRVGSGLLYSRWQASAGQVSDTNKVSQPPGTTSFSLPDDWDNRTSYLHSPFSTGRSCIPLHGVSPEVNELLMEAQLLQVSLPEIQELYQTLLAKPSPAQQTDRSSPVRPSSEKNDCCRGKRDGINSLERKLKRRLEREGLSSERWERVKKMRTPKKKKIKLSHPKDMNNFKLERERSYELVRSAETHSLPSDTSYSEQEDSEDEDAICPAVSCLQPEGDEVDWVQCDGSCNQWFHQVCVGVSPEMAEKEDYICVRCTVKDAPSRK
# Experiment: Primary screen for KDM5B Histone Demethylases FDH-coupled qHTS; note: nearly all actives have a fitted effect of over 70% in size
# Conditions: FDH-coupled NADH fluorescence (FDH is formaldehyde dehydrogenase); series mostly up to 57.7 µM
# How it was run: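 Compound dilutions met 200 nM (final) KDM5BΔAP for 10 min at room temperature before substrate addition. The substrate mix held 12.5 µM H3K4me3 with cofactors 25 µM α-ketoglutarate and 50 µM Fe²⁺. NADH signal gain over 30 min defined activity.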
# Potency is the fitted concentration of half-maximal effect; tags give direction and shape of the fitted curve.
row,Compound,Potency
1,CC(C)NC(=O)c1nc(-c2cc(Cl)cc(Cl)c2)c2ccccn12,"inconclusive: 15.8 µM [inhibitor, partial curve, poor fit]"
2,Cc1ccc(CN2CC[C@@H]3[C@H]2C(=O)NC[C@H](CCC(=O)N2CCN(c4ccccn4)CC2)N3C)cc1,active: 31.6 µM
3,COc1ccc(NC(=O)NCc2c(C)nn(C)c2C)c(OC)c1,inactive
4,Cn1c(=O)c2cn(S(=O)(=O)c3ccc4c(c3)CCCC4)nc2n(C)c1=O,inactive
5,CN1[C@@H](CCC(=O)N2CCOCC2)CNC(=O)[C@@H]2[C@H]1CCN2Cc1cccs1,"inconclusive: 25.1 µM [inhibitor, partial curve]"
6,COc1ccc(-c2nc(CCNc3ncccc3C#N)co2)cc1,"inconclusive: 35.5 µM [inhibitor, single point]"
7,COc1cc(C(=O)N2CCN(c3nccs3)CC2)cc(Cl)c1OC(C)C,inactive
8,CCCOC(=O)c1cc2ccccc2[nH]1,"inconclusive: 39.8 µM [inhibitor, single point]"
9,Clc1ccc(Nc2nc(NCC3CCCO3)nc3c2cnn3-c2ccccc2)cc1 (centres undefined),inactive
10,CCN(Cc1ccncc1)C(=O)CC(c1ccccc1)c1ccc2c(c1)OCO2 (centres undefined),"inconclusive: 5.62 µM [inhibitor, partial curve, poor fit]"
11,Cc1nc(C)c(C(=O)N2CC(Oc3ccccc3-c3nc(C4CC4)no3)C2)s1,"inconclusive: 20 µM [inhibitor, partial curve, poor fit]"
12,CC(/C=N/NC(=O)C1CCCCC1)c1ccccc1 (centres undefined),inactive
13,CN(C)C[C@@H]1CN(S(C)(=O)=O)C[C@H]1NC(=O)c1cscn1,"inconclusive: 25.1 µM [inhibitor, partial curve, poor fit]"
14,Cc1ccc2c(C(=O)N3CCCC(C#N)C3)cc(-c3cnn(C(C)C)c3)nc2c1 (centres undefined),active: 28.2 µM
15,CS(=O)(=O)CCN1CCN(C(=O)c2cccc(-c3ncc[nH]3)c2)CC1,"inconclusive: 20 µM [inhibitor, single point]"
16,O=C(CCc1ncc(-c2ccccc2F)o1)N1CCN(CC(=O)N2CCCCC2)CC1,inactive
17,CCCN1CCN(C(=O)c2cc(NC(=O)C3CCC3)cc3nc(C)ccc23)CC1,active: 22.4 µM
18,Cc1ccc(C)c(N2CCN(C(=O)Cn3nc(Cc4cccnc4)c4ccccc4c3=O)CC2)c1,inactive
19,COC(=O)CC(NC(=O)c1cc(C)nc2c1cnn2C(C)C)c1ccccc1Cl (centres undefined),inactive
20,Fc1cc(Br)ccc1CSc1nc2ncccc2o1,inactive
21,Cc1cnc(C(=O)N(C)Cc2ccc(Cl)s2)cn1,inactive
22,COCCOCC1(CNC(=O)c2nc3ccccc3[nH]2)C[C@@H](O)[C@@H](O)C1 (some centres undefined),active: 31.6 µM

row,Compound,Potency
1,CNC(=O)Cn1ccc2cc(S(=O)(=O)N3CCCCC3)ccc21,inactive
2,COc1ccc2c(C)c(-c3ccccc3)c(=O)oc2c1,"inconclusive: 22.4 µM [inhibitor, single point]"
3,COc1cc(CN2CCC(C)(NC(C)=O)CC2)cc(-c2ccccc2)c1,"inconclusive: 31.6 µM [inhibitor, single point]"
4,CN1C[C@H](NCc2ccc(F)cc2)CCC[C@@H](C(=O)N(C)Cc2cccnc2)CC1=O,inactive
5,CN(CCC1CCCCO1)C(=O)Cn1ccc2ccccc2c1=O (centres undefined),"inconclusive: 25.1 µM [inhibitor, single point]"
6,Cc1ccc(NC(=O)Nc2ccccc2)c(=O)n1CC(=O)NC1CCCCC1,"inconclusive: 39.8 µM [inhibitor, single point]"
7,O=C(Nc1cccc(F)c1)/C(=C/c1ccco1)NC(=O)c1ccco1,"inconclusive: 31.6 µM [inhibitor, single point]"
8,Cc1nn(C(C)C(=O)NCc2cccc(F)c2)c(=O)c2c1sc1ccccc12 (centres undefined),"inconclusive: 10 µM [inhibitor, partial curve, poor fit]"
9,CN(C)S(=O)(=O)c1cccc(NC(=O)c2ccc(OCc3cn4ccccc4n3)cc2)c1,inactive
10,COc1ccc(-c2cc(N3CCC(NC(=O)c4cc(C)ccc4C)C3)n[nH]2)cc1 (centres undefined),"inconclusive: 3.98 µM [inhibitor, single point]"
11,COc1ccc(C(C(=O)O)N2CCCN(c3ccc(F)cc3)CC2)cc1F (centres undefined),"inconclusive: 22.4 µM [inhibitor, partial curve, poor fit]"
12,O=C(NC1CCCCC1)N1CCC(N2CC3CC(C2)[C@H]2CCCC(=O)N2C3)CC1 (some centres undefined),"inconclusive: 17.8 µM [inhibitor, single point]"
13,CCn1c(=O)cc(SCC(=O)N2CCN(c3cc(C)ccc3C)CC2)c2ccccc21,"inconclusive: 25.1 µM [inhibitor, single point]"
14,CCOC(=O)c1cc(OC(=O)c2ccc(OC)c(OC)c2)n(-c2ccccc2)n1,"inconclusive: 3.16 µM [inhibitor, partial curve, poor fit]"
15,O=C(C1CCCC1)N1CC2(CCN(CC3CC3)C2)Cc2ccccc21 (centres undefined),"inconclusive: 56.2 µM [inhibitor, partial curve, poor fit]"
16,COc1ccc(S(=O)(=O)N2CC[C@@H](CC(=O)O)[C@@H](CC3=NCCc4cc(OC)c(OC)cc43)C2)cc1,inactive
17,N#Cc1cccc(NC(=O)N2C[C@@H]3C[C@H](C2)c2ccc(-c4ccc(OC(F)(F)F)cc4)c(=O)n2C3)c1,inactive
18,Cc1nc(NC(=O)COc2cccc3ccccc23)sc1C,inactive
19,Cc1cccc(Cn2c(SCc3ccc(C(=O)NC4CCCCC4)cc3)nc3cccnc32)c1,"inconclusive: 35.5 µM [inhibitor, partial curve, poor fit]"
20,CN1CCC(NC(=O)C2(C)CN(Cc3ccccc3)Cc3ccc(Nc4ccccc4)nc32)CC1 (centres undefined),"inconclusive: 35.5 µM [inhibitor, single point]"
21,Cc1cccc(Oc2ccc(S(=O)(=O)N3CCCCC3)cc2NCC(=O)Nc2cc(C)on2)c1,"inconclusive: 25.1 µM [inhibitor, partial curve, poor fit]"
22,Cc1ccc2cc(CN3CCC4(CC3)CC(O)CCO4)c(=O)[nH]c2c1 (centres undefined),"inconclusive: 22.4 µM [inhibitor, single point]"
